{"source": "PubChem BioAssay AID434955", "about": "(Southern Research Specialized Biocontainment Screening …, 2010)", "note": "The other results are listed elsewhere or left out. The main result of the screen is listed elsewhere. These columns were measured beside it and carry no call. Most of these compounds were active or inconclusive in the main read-out, so they are no random draw."}
{"test": "beta-lactam sensitization of Mtb H37Rv, H37Rv (AID 434955);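 also: growth measured after seven days incubation then overnight dye step; 0% = bacteria only wells and 100% = bacteria with antibiotic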", "details": "M. tuberculosis H37Rv growth with meropenem, percent inhibition; measured here: primary screen without meropenem; at 25 µM", "units": {"inhibition": "%"}}
{"smiles": "Cc1ccc(N2CC(C)Cn3c2nc2c3c(=O)[nH]c(=O)n2C)cc1C", "note": "(stereo not drawn)", "inhibition": 4.12}
{"smiles": "CC1CN(C(=O)CCC(=O)NCc2ccccc2Cl)c2ccccc2S1", "note": "(stereo not drawn)", "inhibition": 1.51}
{"smiles": "COc1ccc(C(=O)C(C)Oc2cccc(NC(=O)c3cccc([N+](=O)[O-])c3)c2)cc1", "note": "(stereo not drawn)", "inhibition": 3.24}
{"smiles": "COc1cccc2c1cc1c(=O)n(CC(=O)N3CCC(C)CC3)nc(C)n12", "inhibition": 3.22}
{"smiles": "COc1ccc(NC2CCCN(C(=O)CSc3ccccc3)C2)cc1OC", "note": "(stereo not drawn)", "inhibition": 5.74}
{"smiles": "C=CCC1(CC=C)CCCN1C(=O)C1CCC(=O)N(CCc2ccccc2)C1", "note": "(stereo not drawn)", "inhibition": 3.06}
{"smiles": "Cc1ccc(SC(C)C(=O)Nc2ccccc2-c2ccccc2)cc1", "note": "(stereo not drawn)", "inhibition": 8.42}
{"smiles": "CC1=NC(=O)C(N=Nc2cccc(C(=O)O)c2)N1c1ccccc1", "note": "(stereo not drawn)", "inhibition": 21}
{"smiles": "COc1ccccc1N1CCN(C(=O)c2cc(-c3ccc(Cl)c(Cl)c3)on2)CC1", "inhibition": 6.22}
{"smiles": "COc1ccc(CCNC(=O)CN2CCOc3ccccc32)cc1OC", "inhibition": -9.11}
{"smiles": "CC(=O)Nc1cccc(/C(C)=N/NC(N)=S)c1", "inhibition": -6.1}
{"smiles": "CSc1c(C#N)c(N)c(C#N)c2c1COC(C)(C)C2", "inhibition": -11.2}
{"smiles": "CC1=C(C(=O)N2CCN(C(=O)c3ccco3)CC2)C2(CCC(C)CC2)OC1=O", "note": "(stereo not drawn)", "inhibition": -10.8}
{"smiles": "CCCn1nnnc1NC(=O)COc1ccc(Cl)cc1C", "inhibition": 37.7}
{"smiles": "Cc1cc(C)cc(NC(=O)c2cc(Cl)sc2Cl)c1", "inhibition": 39.8}
{"smiles": "O=C1c2[nH]nc(-c3ccccc3O)c2C(c2ccc(F)cc2)N1CC1CCCO1", "note": "(stereo not drawn)", "inhibition": -0.5}
{"smiles": "CCOC(=O)c1c(-c2ccccc2)oc2cc(Br)c(O)c(C=O)c12", "inhibition": -5.4}
{"smiles": "O=S1CCCSC1c1cccnc1", "note": "(stereo not drawn)", "inhibition": 1.16}
{"smiles": "Cn1nc(-c2ccc(OCC(=O)NCC3CCCO3)cc2)c2ccccc2c1=O", "note": "(stereo not drawn)", "inhibition": -3.14}
{"smiles": "CCN(CC)C(=O)COc1ccc(-c2nnc(Nc3ccc(OC)c(C(=O)NC)c3)c3ccccc23)cc1", "inhibition": 5.29}
{"smiles": "CCc1ccc(CNC(=O)c2ccc3nc(C4CCCCC4)oc3c2)nc1", "inhibition": 89.5}
{"smiles": "COc1cc(OC)cc(-c2nnc(NC(=O)CCS(=O)(=O)c3ccc(C)cc3)o2)c1", "inhibition": 35.3}
{"smiles": "C[C@H](NC(=O)c1[nH]cnc1C(=O)Nc1ccc(Cl)cc1)C(=O)OC(C)(C)C", "inhibition": 40.9}
{"smiles": "CCOC(=O)c1ccccc1NC(=O)C1COc2ccccc2O1", "note": "(stereo not drawn)", "inhibition": 30.4}
{"smiles": "COC(=O)CN1C(=O)C(O)=C(C(C)=O)C1c1ccc([N+](=O)[O-])cc1", "note": "(stereo not drawn)", "inhibition": -2.53}
{"smiles": "O=C1C(Cl)=C(N2CCCCCC2)C(=O)N1c1ccc(Br)cc1", "inhibition": 13.2}
{"smiles": "Cc1ccc(S(=O)(=O)Oc2ccc(/C=N/N=C3/NC(=O)C(CC(=O)O)S3)cc2)cc1[N+](=O)[O-]", "note": "(stereo not drawn)", "inhibition": 2.19}
{"smiles": "COc1ccc(-n2ncc3c2CC(C)(C)CC3NC(=O)c2ccoc2C)cc1", "note": "(stereo not drawn)", "inhibition": 9.65}
{"smiles": "O=C(NCc1ccccn1)c1cc(-c2ccc(Cl)cc2)nc2ccccc12", "inhibition": 5.14}
{"smiles": "CCN(CC)S(=O)(=O)c1ccc(OC)c(NC(=O)COc2ccc3c(C)cc(=O)oc3c2)c1", "inhibition": 17}
{"smiles": "COc1cccc(CNC(=O)C(Cc2ccccc2)n2cccc2)c1", "note": "(stereo not drawn)", "inhibition": 31.3}
{"smiles": "CN(C)c1ccc(/C=N/n2c(C3CCCCC3)n[nH]c2=S)cc1", "inhibition": 10.7}
{"smiles": "Cc1ccc(OCC(=O)Nc2ccc3c4c(cccc24)CC3)c(C)c1", "inhibition": 14.8}
{"smiles": "CCOc1ccc2nc(NC(=O)c3cnccn3)sc2c1", "inhibition": 34}
{"smiles": "N#CCn1cnc2c(oc3ccccc32)c1=O", "inhibition": 1.67}
{"smiles": "Cc1c(C(c2cccc([N+](=O)[O-])c2O)c2c(C)n(C)n(-c3ccccc3)c2=O)c(=O)n(-c2ccccc2)n1C", "inhibition": -2.97}
{"smiles": "c1ccc(CCn2nnnc2CN2CCC(n3nnc4ccccc43)CC2)cc1", "inhibition": -4.32}
{"smiles": "O=C(CCC1N=C2c3ccccc3N=C(SCc3ccc(Cl)cc3)N2C1=O)NCc1ccco1", "note": "(stereo not drawn)", "inhibition": 94.5}
{"smiles": "Cc1nc(CC(=O)Nc2nc(C(C)(C)C)cs2)cs1", "inhibition": -0.68}
{"smiles": "CN(C)S(=O)(=O)c1ccc(C(=O)NCc2cccs2)cc1", "inhibition": -2.86}
{"smiles": "CCCCOc1ccc(NC2=NC3(CCCCC3)N=C(N)N2)cc1", "inhibition": 31.6}
{"smiles": "O=S(=O)(c1ccc(F)cc1)c1nc(-c2ccccc2)oc1N1CCOCC1", "inhibition": 0.17}
{"smiles": "CCn1cc(C(=O)NN)c(=O)c2cc(F)c(N3CCOCC3)cc21", "inhibition": 2.7}
{"smiles": "O=C(CNC(=O)c1ccco1)NCc1nc2ccccc2[nH]1", "inhibition": -5.96}
{"smiles": "CCc1ccccc1NC(=O)c1ccc(F)c(S(=O)(=O)N2CCC(C(N)=O)CC2)c1", "inhibition": -6.83}
{"smiles": "CC1Cc2ccccc2N1C(=O)CSc1nnc(CSc2ncccn2)n1C", "note": "(stereo not drawn)", "inhibition": 5.82}
{"smiles": "O=C1CCC(C(=O)N2CCC(CO)CC2)CN1Cc1ccc(Cl)cc1", "note": "(stereo not drawn)", "inhibition": 2.86}
{"smiles": "COc1cccc2c(C)nc(Nc3nc(CSc4nnc(C)s4)cc(=O)[nH]3)nc12", "inhibition": 11.4}
{"smiles": "CN(CC(=O)NCc1ccncc1)S(=O)(=O)c1ccc(Br)cc1", "inhibition": 6.44}
{"smiles": "COc1ccc(N=c2oc3cc(O)ccc3cc2C(=O)NCC2CCCO2)c(OC)c1", "note": "(stereo not drawn)", "inhibition": -6.93}
{"smiles": "CC(=O)NCCn1c(SCc2ccccc2C)nc2ccccc2c1=O", "inhibition": -7.92}
{"smiles": "O=C(NNC(=O)c1ccccc1F)c1cccc(Cl)c1", "inhibition": -1.93}
{"smiles": "CCCc1nc(SCC(=O)N2CCCCCC2)c2c(=O)n(C)c(=O)n(C)c2n1", "inhibition": -2.54}
{"smiles": "O=S(=O)(Cc1ccccc1)c1cnc2ccccc2n1", "inhibition": 21.1}
{"smiles": "COc1ccc(S(=O)(=O)Oc2cccc(C(=S)N3CCOCC3)c2)cc1", "inhibition": 8.61}
{"smiles": "O=C(c1ccc(OC2CCN(Cc3ccccn3)CC2)cc1)N1CCC[C@H]1CO", "inhibition": 11.6}
{"smiles": "COc1ccc(-c2c(O)c(C#N)c(-c3ccccc3)n(-c3ccc(OC)cc3)c2=O)cc1", "inhibition": -12.8}
{"smiles": "Cc1cc(Br)cc2c(C(=O)NCC3CCCO3)cc(-c3ccccc3)nc12", "note": "(stereo not drawn)", "inhibition": 1.89}
{"smiles": "O=C(NC(Cc1ccccc1)C(=O)N1CCC2(CC1)OCCO2)C1CCCCC1", "note": "(stereo not drawn)", "inhibition": -0.62}
{"smiles": "C[C@H]1C=CC(=O)O[C@H]1c1ccccc1", "inhibition": 6.93}
{"smiles": "O=C(CN1C(=O)COc2ccc(S(=O)(=O)N3CCCCCC3)cc21)NCc1ccc(F)cc1", "inhibition": 5.82}
{"smiles": "COC(=O)Cn1nc(-c2ccccc2)c2ccccc21", "inhibition": 31.4}
{"smiles": "COC(=O)c1cc(S(=O)(=O)NCc2ccc(F)cc2)cn1C", "inhibition": -8.09}
{"smiles": "O=C(c1cc2ccccc2oc1=O)N1CCN(c2ncccn2)CC1", "inhibition": 2.88}
{"smiles": "CCC(=O)Nc1ccc2nc(SCC(=O)N3CCCC3)sc2c1", "inhibition": 6.48}
{"smiles": "COc1ccc(-c2nnc(SCC(=O)N3CCCCC3)o2)cc1OC", "inhibition": -6.08}
{"smiles": "C=CCN1CCN(c2ccncc2S(=O)(=O)N2CCCCC2)CC1", "inhibition": -11.5}
{"smiles": "CCOc1cc(/C=N/n2c(COc3ccccc3)n[nH]c2=S)ccc1O", "inhibition": 0}
